{
  "source": "patent US6143715A",
  "about": "“Hepatitis C inhibitor peptide analogues” (priority 1998, dated 2000)",
  "note": "At least one compound was matched to its structure with a doubt left. Starred links: 1 amine or outer side, 2 acyl side, 3 side chain; linkers in the order of their positions; H or OH if unused. Non-standard residues stand in square brackets, D forms with d. Residues, ends and D or L forms follow the SMILES beside them. *: point of attachment. NH(1S-phenylethyl) = C[C@H](N*)c1ccccc1; X1 = CCCC(N*)C(=O)C(F)(F)C(F)(F)F; Hyp = O=C(O)[C@@H]1C[C@@H](O)CN1; X3 = CC(C)CCN(N[*:1])C(=O)[*:2]; azaNva = CCCN(N[*:1])C(=O)[*:2]; X4 = C[C@H](N*)c1cccc2ccccc12; X8 = c1ccc2c(c1)CC[C@@H]2N*; X17 = CCCN(N*)C(=O)C(=O)OC; X9 = C[C@H](N*)C1CCCCC1; Bn = c1ccc(C*)cc1",
  "data": [
    {"molecular_target": "T1, HCV NS3 protease type 1b/NS4A cofactor peptide (Hepatitis C virus genotype 1b, UniProt P26663)", "T1 construct": "recombinant HCV NS3 protease (amino acid 1027 to 1206) was cloned; made in house; host or cells: E. coli BL21(DE3)pLysS", "T1 sequence (P26663 1027-1206, other chains not shown)": "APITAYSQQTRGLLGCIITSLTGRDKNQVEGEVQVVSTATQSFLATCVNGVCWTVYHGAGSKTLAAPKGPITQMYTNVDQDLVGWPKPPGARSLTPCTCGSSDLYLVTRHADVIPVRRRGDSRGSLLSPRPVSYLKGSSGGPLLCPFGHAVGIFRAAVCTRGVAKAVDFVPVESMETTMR", "format": "biochemical, hepatitis C virus (HCV) genotype 1b", "conditions": "read-out: IC50: concentration required to obtain 50% inhibition in the NS3 protease/NS4A cofactor peptide radiometric assay; enzyme:cofactor 1:100, 40 min at 23° C.", "source_text": "a) Cloning, expression and purification of the recombinant HCV NS3 protease type lb\nSerum from an HCV-infected patient was obtained through an external collaboration (Bernard Willems MD, Hopital St-Luc, Montreal, Canada and Dr. Donald Murphy, Laboratoire de Sante Publique du Quebec, Ste-Anne de Bellevue, Canada). An engineered full-length cDNA template of the HCV genome was constructed from DNA fragments obtained by reverse transcription-PCR (RT-PCR) of serum RNA and using specific primers selected on the basis of homology between other genotype lb strains. […] A DNA fragment encoding the polyprotein precursor (NS3/NS4A/NS4B/NS5A/NS5B) was generated by PCR and introduced into eucaryotic expression vectors.\nThe NS3 protease expression in E. coli BL21(DE3)pLysS was induced by incubation with 1 mM IPTG for 3 h at 22° C. […] The cells were resuspended in lysis buffer (3.0 mL/g) consisting of 25 mM sodium phosphate, pH 7.5, 10% glycerol (v/v), 1 mM EDTA, 0.01% NP-40 and stored at -80° C. Cells were thawed and homogenized following the addition of 5 mM DTT. Magnesium chloride and DNase were then added to the homogenate at final concentrations of 20 mM and 20 μg/mL respectively. After a 25 min incubation at 4° C., the homogenate was sonicated and centrifuged at 15000× g for 30 min at 4° C. The pH of the supernatant was then adjusted to 6.5 using a 1M sodium phosphate solution.\nBriefly, the supernatant from the bacterial extract was loaded on a SP HiTrap column (Pharmacia) previously equilibrated at a flow rate of 2 mL/min in buffer A (50 mM sodium phosphate, pH 6.5, 10% glycerol, 1 mM EDTA, 5 mM DTT, 0.01% NP-40). The column was then washed with buffer A containing 0.15 M NaCl and the protease eluted by applying 10 column volumes of a linear 0.15 to 0.3 M NaCl gradient. NS3 protease-containing fractions were pooled and diluted to a final NaCl concentration of 0.1 M. The enzyme was further purified on a HiTrap Heparin column (Pharmacia) equilibrated in buffer B (25 mM sodium phosphate, pH 7.5, 10% glycerol, 5 mM DTT, 0.01% NP-40). The sample was loaded at a flow rate of 3 mL/min. The column was then washed with buffer B containing 0.15 M NaCl at a flow rate of 1.5 mL/min. Two step washes were performed in the presence of buffer B containing 0.3 or 1M NaCl. […] Finally, the NS3 protease-containing fractions were applied on a Superdex 75 HiLoad 16/60 column (Pharmacia) equilibrated in buffer B containing 0.3 M NaCl.\nThe enzyme was stored at -80° C. and was thawed on ice and diluted just prior to use.\nRecombinant HCV NS3 Protease/NS4A Cofactor Peptide Radiometric Assay\nThe enzyme was stored at -80° C., thawed on ice and diluted just prior to use in the assay buffer containing the NS4A cofactor peptide.\nThe substrate used for the NS3 protease/[…] cofactor peptide radiometric assay, DDIVPC-SMSYTW, is cleaved between the cysteine and the serine residues by the enzyme. The sequence DDIVPC-SMSYTW corresponds to the NS5A/NS5B natural cleavage site in which the cysteine residue in […] has been substituted for a proline. […] (molar ratio enzyme: cofactor 1:100) in the absence or presence of inhibitors. The separation of substrate from products is performed by adding avidin-coated agarose beads to the assay mixture followed by filtration.\nAssay buffer: 50 mM Tris HCl, pH 7.5, 30% (w/v) glycerol, 1 mg/mL BSA, 1 mM TCEP (TCEP added just prior to use from a 1 M stock solution in water)\nSubstrate: […], […] final concentration (from a 2 mM stock solution in DMSO stored at -20° C. to avoid oxidation).", "units": {"IC50": "nM"}, "values": [
      {"smiles": "CCCC(NC(=O)[C@@H]1CCCN1C(=O)[C@@H](NC(=O)[C@@H](NC(=O)[C@@H](CC(=O)O)NC(=O)[C@H](CC(=O)O)NC(C)=O)[C@@H](C)CC)C(C)C)C(=O)C(=O)NCc1ccccc1", "note": "(single isomer, unassigned) [Compound 112]", "IC50": 2000},
      {"smiles": "CCCC(NC(=O)[C@@H]1CCCN1C(=O)[C@@H](NC(=O)[C@@H](NC(=O)[C@@H](CC(=O)O)NC(=O)[C@H](CC(=O)O)NC(C)=O)[C@@H](C)CC)C(C)C)C(=O)C(=O)NCc1ccccc1", "note": "(single isomer, unassigned) [Compound 115]", "IC50": 660},
      {"smiles": "CCCC(NC(=O)[C@@H]1CCCN1C(=O)[C@@H](NC(=O)[C@@H](NC(=O)[C@@H](CCC(=O)O)NC(=O)[C@H](CC(=O)O)NC(C)=O)[C@@H](C)CC)C(C)C)C(=O)C(F)(F)C(F)(F)F", "note": "(stereo partly shown) [Compound 113] (Ac-D[dE]IVP-X1)", "IC50": 12800},
      {"smiles": "CCCN(NC(=O)[C@@H]1C[C@@H](OCc2ccccc2)CN1C(=O)[C@@H](NC(=O)[C@@H](NC(=O)[C@@H](CCC(=O)O)NC(=O)[C@H](CC(=O)O)NC(C)=O)[C@@H](C)CC)C(C)C)C(=O)N[C@@H](C)c1cccc2ccccc12", "note": "[Compound 212] (Ac-D[dE]IV[Hyp](Bn)[azaNva]-X4)", "IC50": 580},
      {"smiles": "CCCN(NC(=O)[C@@H]1CCCN1C(=O)[C@@H](NC(=O)[C@@H](NC(=O)[C@@H](CCC(=O)O)NC(=O)[C@H](CC(=O)O)NC(C)=O)[C@@H](C)CC)C(C)C)C(=O)N[C@@H](C)c1ccccc1", "note": "[Compound 217] (Ac-D[dE]IVP[azaNva]-{NH(1S-phenylethyl)})", "IC50": 1040},
      {"smiles": "CC[C@H](C)[C@H](NC(=O)[C@@H](CCC(=O)O)NC(=O)[C@H](CC(=O)O)NC(C)=O)C(=O)N[C@H](C(=O)N1C[C@H](OCc2ccccc2)C[C@H]1C(=O)NN(CCC(C)C)C(=O)N[C@@H](C)c1ccccc1)C(C)C", "note": "[Compound 218] (Ac-D[dE]IV[Hyp](Bn)[X3]-{NH(1S-phenylethyl)})", "IC50": 3300},
      {"smiles": "CC[C@H](C)[C@H](NC(=O)[C@@H](CCC(=O)O)NC(=O)[C@H](CC(=O)O)NC(C)=O)C(=O)N[C@H](C(=O)N1C[C@H](OCc2ccccc2)C[C@H]1C(=O)NN(CCC(C)C)C(=O)N[C@@H](C)c1ccccc1)C(C)C", "note": "[Compound 222] (Ac-D[dE]IV[Hyp](Bn)[X3]-{NH(1S-phenylethyl)})", "IC50": 8900},
      {"smiles": "CCCN(NC(=O)[C@@H]1C[C@@H](OCc2ccccc2)CN1C(=O)[C@@H](NC(=O)[C@@H](NC(=O)[C@@H](CCC(=O)O)NC(=O)[C@H](CC(=O)O)NC(C)=O)[C@@H](C)CC)C(C)C)C(=O)C(=O)OC", "note": "[Compound 225] (Ac-D[dE]IV[Hyp](Bn)-X17; C-terminus assumed)", "IC50": 13000},
      {"smiles": "CCCN(NC(=O)[C@@H]1C[C@@H](OCc2ccccc2)CN1C(=O)[C@@H](NC(=O)[C@@H](NC(=O)[C@@H](CCC(=O)O)NC(=O)[C@H](CC(=O)O)NC(C)=O)[C@@H](C)CC)C(C)C)C(=O)N[C@H]1CCc2ccccc21", "note": "[Compound 229] (Ac-D[dE]IV[Hyp](Bn)[azaNva]-X8; N-terminus and C-terminus assumed)", "IC50": 130},
      {"smiles": "CCCN(NC(=O)[C@@H]1C[C@@H](OCc2ccccc2)CN1C(=O)[C@@H](NC(=O)[C@@H](NC(=O)[C@@H](CCC(=O)O)NC(=O)[C@H](CC(=O)O)NC(C)=O)[C@@H](C)CC)C(C)C)C(=O)N[C@@H](C)C1CCCCC1", "note": "[Compound 230] (Ac-D[dE]IV[Hyp](Bn)[azaNva]-X9; C-terminus assumed)", "IC50": 360}
    ]}
  ]
}
